# Experimental data: PubChem BioAssay AID485281 (National Center for Advancing Translational Sciences (NCATS), 2010)
# In all, about 350,000 compounds went through this assay and about 260 (0.074%) were called active. The inconclusive results got no clear call from the source; some entries with a clear call stand among them for comparison. The call rests on the fitted dose curve; in most records, active means well fitted inhibition curve with a large enough effect; inconclusive means small, poorly fitted or top-dose-only effect; inactive means no such curve, though single readings can be large or run the other way. Potencies beside an inconclusive call are fits to weak or partial responses and may not hold up.
# Biological target: Ferritin light chain (Equus caballus) (UniProt P02791)
# Experiment: qHTS Assay for Identification of Novel General Anesthetics; further: nearly all actives have a fitted effect of over 20% in size
# Conditions: apoferritin/1-aminoanthracene competitive binding, fluorescence; series mostly up to 77.5 µM
# Outline: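 Concentration-response curves derived by four-parameter Hill fitting of normalized fluorescence, where compounds displaced 1-AMA from 10 uM horse apoferritin following a brief 10 min room-temperature incubation; propofol titration acted as positive control.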
# Potency means the concentration at half of the fitted maximal effect; tags describe the fitted curve by direction and shape.
# UniProt P02791, sequence (P02791 whole entry, looked up): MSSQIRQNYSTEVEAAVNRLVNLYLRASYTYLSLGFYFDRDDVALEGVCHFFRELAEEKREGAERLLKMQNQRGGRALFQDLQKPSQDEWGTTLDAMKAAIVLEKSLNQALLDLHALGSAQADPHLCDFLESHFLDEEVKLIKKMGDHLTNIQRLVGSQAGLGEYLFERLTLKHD
row,SMILES,Potency
1,CCc1ccc(CNC(=O)CSc2cc(=O)n(CC)c3ccccc23)cc1,"inconclusive: 22.4 µM [inhibitor, partial curve, poor fit]"
2,Cc1ccc(N2CCN(C(=O)c3ccccc3Br)CC2)c(C)c1,inactive
3,CCc1nn(CC(=O)N(CC)Cc2ccccc2)c(=O)c2cc3occc3n12,"inconclusive: 20 µM [inhibitor, partial curve]"
4,CCOC(=O)c1c(N)sc2c1CCC(C)C2 (stereo not given),"inconclusive: 31.6 µM [inhibitor, single point]"
5,COc1ccc(C(=O)NCCn2ccc3ccccc32)c(OC)c1,"inconclusive: 35.5 µM [inhibitor, partial curve]"
6,C/C(=N/N=C(/C)c1cccs1)c1cccs1,"inconclusive: 15.8 µM [inhibitor, partial curve]"
7,COC(=O)C1=C(C)N(Cc2ccc(OC)cc2)C(=O)/C1=C\c1ccco1,inactive
8,COc1ccc(NC(=O)COC(=O)CC2CC3CCC2C3)c([N+](=O)[O-])c1 (stereo not given),"inconclusive: 22.4 µM [inhibitor, partial curve]"
9,CCOC(=O)c1cccc(NC(=O)CSc2nnc(C3CCCCC3)n2CC)c1,"inconclusive: 31.6 µM [inhibitor, partial curve]"
10,Cc1cccc(C)c1NS(=O)(=O)c1ccc2c(c1)[C@H]1C=CC[C@H]1[C@@H](c1ccc(Cl)cc1)N2,"inconclusive: 15.8 µM [inhibitor, partial curve]"
11,COCC(C)n1c(C)cc(C(=O)CSc2ncccn2)c1C (stereo not given),inactive
12,Nc1nc(SCc2nc(-c3ccccc3)no2)[nH]c(=O)c1-c1ccccc1,"inconclusive: 31.6 µM [inhibitor, single point]"
13,COc1ccc(CCNC(=O)CCCNC(=O)Cn2cnc3sc(C)c(C)c3c2=O)cc1OC,inactive
14,CCC/C(=N\NC(=O)Cc1csc(N2CCOCC2)n1)c1ccccc1,"inconclusive: 25.1 µM [inhibitor, single point]"
15,Cc1cc(C)n(C(=O)c2cccc([N+](=O)[O-])c2C)n1,inactive
16,N#Cc1ccc(CSCC(=O)NN=C2CCCC2)cc1,"inconclusive: 28.2 µM [inhibitor, single point]"
17,Oc1ccc(N=Nc2ccc(Br)cc2)c(O)c1,"inconclusive: 35.5 µM [inhibitor, single point]"
18,Cc1[nH]c2ccccc2c1N=Nc1ccccc1F,"inconclusive: 35.5 µM [inhibitor, single point]"
19,N/C(=N\OC(=O)c1ccccc1Cl)c1cccnc1,inactive
20,COc1ccc(OCc2cc(C(=O)NC(C)Cc3cnccn3)no2)c(Cl)c1 (stereo not given),inactive
21,CS(=O)(=O)NCCCNc1ccc(Cl)cc1[N+](=O)[O-],"inconclusive: 31.6 µM [inhibitor, partial curve]"
22,CC(C)(C)NC(=O)CN(Cc1ccc2c(c1)OCO2)C(=O)CCC(=O)Nc1nccs1,inactive
23,Cc1ccc(NC(C#N)c2ccccc2OCc2ccccc2)cc1 (stereo not given),"inconclusive: 35.5 µM [inhibitor, partial curve]"

row,SMILES,Potency
1,CCOC(=O)c1cnc2ccc(OC)cc2c1Nc1ccc(OCc2ccccc2Cl)cc1,"inconclusive: 44.7 µM [inhibitor, partial curve]"
2,CCC(C)N1C(=O)N(c2cccc(Cl)c2)C(C)(O)CC1(C)C (stereo not given),"inconclusive: 50.1 µM [inhibitor, single point]"
3,Cc1cnc(CNc2ncnc3ccc(-c4ccccc4C#N)cc23)cn1,inactive
4,Cc1cccc(-c2noc(CN(C(=O)/C=C/c3ccccc3Cl)C(C)C)n2)c1,"inconclusive: 44.7 µM [inhibitor, single point]"
5,CCc1ccc(/C=C\C(=O)N2CCc3ccccc3C2)cc1,"inconclusive: 22.4 µM [inhibitor, partial curve]"
6,C#Cc1ccc([C@H]2C=C(C(=O)O)O[C@@H](OCc3ccc(CO)cc3)C2)cc1,inactive
7,CSc1cccc(NC(=S)N(Cc2ccc(C)cc2)Cc2cccnc2)c1,inactive
8,O=C1C(c2ccccc2)NC(=S)N1C1CCCCC1 (stereo not given),"inconclusive: 25.1 µM [inhibitor, partial curve]"
9,CCc1c(C)sc2c1CCN(Cc1ccccc1C#N)C2c1ccccc1 (stereo not given),"inconclusive: 1.12 µM [inhibitor, full curve]"
10,CN1CCN(c2ccc(NC(=O)c3ccc(-c4ccc(Br)cc4)o3)cc2)CC1,"inconclusive: 31.6 µM [inhibitor, partial curve]"
11,COc1cc2c(cc1OC)CN(C(=O)c1ccc(S(=O)(=O)N(C)c3ccccc3)cc1)CC2,"inconclusive: 31.6 µM [inhibitor, partial curve]"
12,O=C(CCN1C(=O)c2ccccc2C1=O)NC(=S)Nc1cccc(Cl)c1,"inconclusive: 12.6 µM [inhibitor, partial curve]"
13,CCOc1cc(-c2cc(N)n[nH]2)cc(OCC)c1OCC,"inconclusive: 39.8 µM [inhibitor, single point]"
14,CC(=O)Nc1cccc(C(=O)OC(C(=O)c2ccc(C)cc2)c2ccccc2)c1 (stereo not given),"inconclusive: 15.8 µM [inhibitor, partial curve]"
15,CN(C)C(=O)CCc1nc(-c2ccc(C(C)(C)C)cc2)no1,"inconclusive: 31.6 µM [inhibitor, partial curve]"
16,C=CCN(c1ccccc1)S(=O)(=O)c1cc(C(=O)NC2=NCCS2)ccc1Cl,"inconclusive: 11.2 µM [inhibitor, partial curve]"
17,COc1cccc(/C=C2/C(=O)NN(c3ccc(F)cc3)C2=O)c1,inactive
18,COC(=O)CC(NC(=S)NC(=O)c1ccccc1)c1ccc(Br)cc1 (stereo not given),inactive
19,COc1cccc(CN2C(=O)C(C)N(C(=O)c3ccccc3)c3ccccc32)c1 (stereo not given),inactive
20,O=C(CSc1ncc(-c2ccccc2)[nH]1)Nc1cccc(Br)c1,"inconclusive: 7.08 µM [inhibitor, partial curve]"
21,CC(=O)c1ccc(NCC2COc3ccccc3O2)c([N+](=O)[O-])c1 (stereo not given),"inconclusive: 31.6 µM [inhibitor, single point]"
22,CC(CCc1ccc(O)cc1)NCc1ccc(Br)cc1 (stereo not given),inactive
